# Data: PubChem BioAssay AID588855 (National Center for Advancing Translational Sciences (NCATS), 2011)
# “And” between values parts separate entries of the source, which are not always exact repeats. Identical values can stand only once. The campaign covered roughly 410,000 compounds. About 5,000 (1.2%) were called active. This list was built around the results that the source calls inconclusive (neither active nor inactive); the mix of calls is not that of the screen. The call rests on the fitted dose curve; in most records, active means well fitted inhibition curve with a large enough effect; inconclusive means small, poorly fitted or top-dose-only effect; inactive means no such curve, though single readings can be large or run the other way. Potencies beside an inconclusive call are fits to weak or partial responses and may not hold up.
# Test: qHTS for Inhibitors of TGF-b; further: nearly all actives have a fitted effect of over 65% in size
# Settings: HepG2 CAGA-GFP TGF-b/SMAD3 reporter, GFP fluorescence, 18 h, TGF-beta stimulated, 500 pg/mL final; series mostly up to 46.1 µM
# Procedure, shortened: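 HEPG2 CAGA-GFP, 1000 cells/well; 2 h settle, 37 C; cpd via pin tool; TGF-b 500 pg/mL final; 18 h, 37 C; GFP imaging ex488/em500-530; %Activity normalised to -TGF-b and +DMSO controls; CRC fit, curve class.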
# Potency means the concentration at half of the fitted maximal effect; tags describe the fitted curve by direction and shape.
row,SMILES,Potency
1,O=C(Oc1c(Cl)cc(Cl)c2ccccc12)N1CCCCC1,"inconclusive: 11.2 µM [inhibitor, partial curve]"
2,COc1ccc(CCNC(=O)CCc2c(C)nc3c(-c4ccc(F)cc4)c(C)nn3c2C)cc1OC,"inconclusive: 1.12 µM [inhibitor, partial curve, poor fit]"
3,CCCCCc1nc2ccccc2c(=O)n1-c1ccccc1[N+](=O)[O-],"inconclusive: 25.1 µM [inhibitor, single point]"
4,C1=C(c2c[nH]c3ccccc23)CCN(Cc2ccccc2)C1,"inconclusive: 12.6 µM [inhibitor, partial curve, poor fit]"
5,Cc1cccc(CN2C(=O)CN=C(c3ccccc3)c3cc(Cl)ccc32)c1,active: 15.8 µM
6,O=C(CCN1CC2CCC(CC2)C1)c1cccs1,active: 12.6 µM
7,CCOc1cc(CNCCc2c[nH]c3ccccc23)cc(Cl)c1OC,active: 15.8 µM
8,CC(=O)NC1=C(N2CC2C)C(=O)C(NC(C)=O)=C(N2CC2C)C1=O (stereo unspecified),"inconclusive: 1.26 µM [inhibitor, partial curve]"
9,CCOC(=O)C1(c2ccccc2)CCN(CCC(=O)Nc2cccc(Br)c2)CC1,"inconclusive: 22.4 µM [inhibitor, single point]"
10,O=C(CNC(=O)OCc1ccccc1)Nc1ccc(Br)cc1C(=O)c1ccccc1,"inconclusive: 14.1 µM [inhibitor, single point]"
11,Cc1cccc(C)c1NC1=NCCCCS1,inactive
12,C[C@H]1CC[C@@]2(C)[C@@H](CC[C@@H]3[C@@H]2CC[C@]2(C)[C@@H](O)CC[C@@H]32)C1,inactive
13,O=C(Cn1cc(C(=O)c2ccccc2)c2ccccc21)Nc1ccc(Br)cc1,"inconclusive: 2.82 µM [inhibitor, partial curve, poor fit]"
14,CCc1ccc(NC(=O)c2cnc3sc(N4CCCC4)nn3c2=O)cc1,"inconclusive: 6.31 µM [inhibitor, single point]"
15,O=C(c1ccc2c(c1)N(Cc1ccc(F)cc1)CCS2)N1CCC2(CC1)OCCO2,"inconclusive: 12.6 µM [inhibitor, single point]"
16,CSc1ccc(CN2CCN(c3ccccc3C)CC2)cc1,"inconclusive: 10 µM [inhibitor, partial curve]"
17,CCN(CC)CCNCc1nc2ccccc2c(=O)n1-c1ccc(F)cc1,"inconclusive: 11.2 µM [inhibitor, partial curve]"
18,CC(Cc1ccccc1)NC(=O)C(c1ccc(N)cc1)c1ccc(N)cc1 (stereo unspecified),inactive
19,CC1CC(C)(O)CC(C(O)CC2CC(=O)NC(=O)C2)C1=O (stereo unspecified),active: 0.316 µM
20,Cc1cccc(C)c1-n1nnnc1C(C1CC1)N1CCC2(CC1)C(=O)NCN2c1ccccc1 (stereo unspecified),"inconclusive: 11.2 µM [inhibitor, partial curve, poor fit]"
21,C[C@@H]([C@@H](O)c1ccccc1)N(C)C(=O)Cc1ccccc1,inactive

row,SMILES,Potency
1,COc1ccc(-n2nnnc2C(c2cccs2)N2CCC(n3c(=O)[nH]c4ccccc43)CC2)cc1 (stereo unspecified),"inconclusive: 22.4 µM [inhibitor, single point]"
2,COc1ccc(-c2noc(CN3C(=O)c4ccccc4C3=O)n2)cc1,"inconclusive: 22.4 µM [inhibitor, single point]"
3,CN(CC(=O)Nc1cccc(F)c1)CC(=O)Nc1cccc(S(=O)(=O)N(C)c2ccccc2)c1,"inconclusive: 25.1 µM [inhibitor, single point]"
4,O=C(O)CP(=O)(O)c1ccc(Cl)cc1,"inconclusive: 0.355 µM [inhibitor, full curve, poor fit]"
5,CCCCn1c(=O)c(C(=O)Nc2ccc(C)cn2)c(O)c2ccccc21,inactive
6,NCCc1c(Cc2ccccc2)[nH]c2ccccc12,"inconclusive: 22.4 µM [inhibitor, single point]"
7,O=C(NCCc1ccccc1)[C@@H]1CC=C[C@@H]2CCN(Cc3ccc(Cl)c(Cl)c3)C(=O)[C@@H]21,"inconclusive: 22.4 µM [inhibitor, single point] and inconclusive: 12.6 µM [inhibitor, partial curve, poor fit]"
8,Clc1ccc(-c2csc3ncnc(Sc4nnnn4C4CC4)c23)cc1,"inconclusive: 35.5 µM [inhibitor, single point]"
9,CCN(C[C@H]1N[C@@](C)(C(=O)OC)[C@H]2C(=O)N(Cc3ccccc3)C(=O)[C@@H]12)S(=O)(=O)c1ccc(C(C)(C)C)cc1,"inconclusive: 35.5 µM [inhibitor, single point]"
10,COC(=O)C1=C(c2ccccc2)C[C@@H]2CC[C@H]1N2C(=O)NC(C)C,inactive
11,O=c1c2ccccc2[se]n1-c1ccccc1,"inconclusive: 25.1 µM [inhibitor, single point] and inconclusive: 22.4 µM [inhibitor, single point]"
12,c1ccc(/N=C2\N=C(Nc3ccccn3)c3ccccc32)nc1,"inconclusive: 20 µM [inhibitor, partial curve, poor fit]"
13,Cc1cccc(N2CCN(C(=O)CCS(=O)(=O)c3ccc4c(c3)oc(=O)n4C)CC2)c1C,"inconclusive: 35.5 µM [inhibitor, single point]"
14,O=C(CCCOc1ccc(Cl)cc1Cl)Nc1cc(S(=O)(=O)N2CCOCC2)ccc1N1CCOCC1,"inconclusive: 35.5 µM [inhibitor, single point]"
15,N#CC(C#N)=Cc1ccc(O)c(O)c1,inactive
16,NC(=Nc1ccccc1)Nc1ccccc1,active: 8.91 µM
17,CC(C)[C@H]1C(=O)O[C@@H]2CCN3CC=C(COC(=O)[C@](C)(O)[C@]1(C)O)[C@H]23,inactive
18,CCOc1cc(-c2c(C#N)c(=O)[nH]c3c2c(C)nn3-c2ccc(F)cc2)ccc1O,"inconclusive: 15.8 µM [inhibitor, partial curve, poor fit]"
19,Oc1ccc(/C=N/NP(=S)(c2ccccc2)c2ccccc2)cc1,"inconclusive: 35.5 µM [inhibitor, single point]"
20,Cc1oc(-c2ccccc2)nc1CN1C(=O)C(C)N=C(c2ccccc2F)c2cc(Cl)ccc21 (stereo unspecified),"inconclusive: 35.5 µM [inhibitor, single point]"
21,COc1cccc(NC(=O)N2CCc3nc(Nc4ccc(C(C)C)cc4)ncc3C2)c1,"inconclusive: 15.8 µM [inhibitor, single point]"

row,SMILES,Potency
1,C[C@]12CCC3[C@@H](CCC4=CC(=O)CC[C@@]43CO)C1CCC2=O (stereo partly specified),"inconclusive: 22.4 µM [inhibitor, single point]"
2,CC12CN3CCN(C1)CC(C)(C3)C2=NO,"inconclusive: 3.16 µM [inhibitor, partial curve, poor fit]"
3,C[C@@H]1O[C@@H](O[C@@H]2C=C3CC[C@@H]4[C@@H](CC[C@]5(C)[C@H](c6ccc(=O)oc6)CC[C@@]45O)[C@@]3(C)CC2)[C@H](O)[C@H](O)[C@H]1O,active: 0.316 µM
4,C[C@H]1C=CC(=O)O[C@H]1c1ccccc1,"inconclusive: 35.5 µM [inhibitor, partial curve, poor fit] and inconclusive: 11.2 µM [inhibitor, single point]"
5,N#Cc1ccc(Cn2cc(C=O)c3ccccc32)cc1,active: 1.41 µM
6,CCOC(=O)C(NS(=O)(=O)c1ccc(C)cc1)(C(F)(F)F)P(=O)(OCC(C)C)OCC(C)C (stereo unspecified),"inconclusive: 15.8 µM [inhibitor, single point]"
7,CC(=O)c1cn(Cc2ccccc2F)c2ccccc12,"inconclusive: 25.1 µM [inhibitor, partial curve, poor fit]"
8,CCN(CC)c1ccc2c(cc1=O)[C@@H](NC)CCc1cc(OC)c(OC)c(OC)c1-2,"inconclusive: 15.8 µM [inhibitor, partial curve, poor fit]"
9,O=c1cc(CN2CCNCC2)nc2sccn12,"inconclusive: 1.12 µM [inhibitor, partial curve]"
10,CCc1ccc(CNC(=O)c2ccc3c(c2)N=C(C)c2cc(C)ccc2S3)cc1,"inconclusive: 12.6 µM [inhibitor, single point]"
11,COc1ccc(-c2cnnn2-c2ccc(NC(=O)c3ccc(S(=O)(=O)N(C)C)cc3)cc2)cc1,inactive
12,O=C(Nc1ccc(Cl)cc1)OC1CN2CCC1CC2 (stereo unspecified),inactive
13,COc1ccc(NC2Oc3cc4c(cc3C(c3cc(OC)c(OC)c(OC)c3)C2C)OCO4)cc1 (stereo unspecified),"inconclusive: 2 µM [inhibitor, partial curve, poor fit]"
14,CC(C)CN1Cc2cc(N3CCCCC3)ccc2-n2nncc2C1,inactive
15,O=c1[nH]sc2cc(F)ccc12,"inconclusive: 5.62 µM [inhibitor, single point]"
16,CC[C@@H](C(=O)[C@@H](C)[C@@H](O)[C@H](C)[C@@H]1O[C@@H]([C@@H](CC)C(=O)O)CC[C@@H]1C)[C@H]1O[C@]2(C=C[C@@H](O)[C@]3(CC[C@@](C)([C@H]4CC[C@](O)(CC)[C@H](C)O4)O3)O2)[C@H](C)C[C@@H]1C,"inconclusive: 8.91 µM [inhibitor, partial curve, poor fit]"
17,O=C(NCCSc1c(-c2ccc(F)cc2)[nH]c2ccccc12)c1ccc(S(=O)(=O)N2CCOCC2)cc1,"inconclusive: 3.16 µM [inhibitor, partial curve]"
18,O=C(Nc1ccc(Br)cc1)c1nn(C23CC4CC(CC(C4)C2)C3)cc1Br,"inconclusive: 7.08 µM [inhibitor, full curve]"
19,CC(C)(C)NC(=O)NC(=O)CN1CC=C(c2ccccc2)CC1,"inconclusive: 25.1 µM [inhibitor, single point]"
